The values that follow come from PubChem BioAssay AID485344 (National Center for Advancing Translational Sciences (NCATS), 2010).

Molecules are shown by their SMILES. Among all 340,000 compounds or so, about 6,900 (2%) were called active. Cut-off read from the data, not from the text of the source: active = inhibition above about 30%; inactive = below that, where a call was filed. Only a part is listed here, and it is no random draw. The source gives no active or inactive call for entries shown without one.

This assay concerns the target D(2) dopamine receptor (Homo sapiens) (UniProt P14416). The assay is described as follows: HTS Assay for Allosteric Antagonists of the Human D2 Dopamine Receptor: Primary Screen for Antagonists. Note: 0% is about no effect. The following applies: HEK293 TREx D2 cells, calcium flux, dopamine EC80; at 10 µM; stronger effect = higher value. The essentials: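 Calcium flux kinetic readout in an inducible HEK293 TREx D2 line plated overnight at 30 C. After 180 s compound exposure, an EC80 dopamine challenge follows with another 180 s kinetic read to detect antagonism.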
UniProt P14416, sequence (P14416 whole entry, looked up): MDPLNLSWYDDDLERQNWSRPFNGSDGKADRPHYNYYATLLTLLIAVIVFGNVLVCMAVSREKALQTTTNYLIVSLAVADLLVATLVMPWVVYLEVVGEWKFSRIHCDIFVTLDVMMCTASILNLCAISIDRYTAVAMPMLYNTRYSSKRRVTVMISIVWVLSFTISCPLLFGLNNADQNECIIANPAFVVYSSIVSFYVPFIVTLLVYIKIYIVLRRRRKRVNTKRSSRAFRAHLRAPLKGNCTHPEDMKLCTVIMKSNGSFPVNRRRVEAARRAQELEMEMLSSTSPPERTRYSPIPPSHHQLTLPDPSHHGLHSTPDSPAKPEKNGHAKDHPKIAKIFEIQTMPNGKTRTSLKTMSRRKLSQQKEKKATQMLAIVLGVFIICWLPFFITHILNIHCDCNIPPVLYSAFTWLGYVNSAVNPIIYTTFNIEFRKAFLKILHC
A general note: Calcium assays in cells follow changes in intracellular calcium, usually with a dye or a luminescent sensor.
The inhibition is the relative decrease from the control value, in per cent. As for `O=C(N/N=C/c1ccsc1)c1ccccn1`, the inhibition is active: 39.1%. The same measure for `Cc1cccc(C)c1NC(=S)NCCc1ccc(O)c(O)c1`: active: 67.3%; for `Cc1ccc(N2CC(NC(=O)C3CCCC3)CC2=O)cc1` (configuration not stated): 4.11%; for `CC(C)CCNC(=O)c1ccc(NC(=O)N2CCCCc3ccccc32)cc1`: 14.8%.

Consider `COc1cccc(N2CCN(C(=O)Cn3ncc4c3-c3ccccc3OC4)CC2)c1`, for which the inhibition stood at 9.25%. The same measure for `Cc1ccc(C(=O)c2cn(CC(=O)Nc3ccc4c(c3)OCCO4)c3nc(C)ccc3c2=O)cc1`: -2.66%. Next, `CCOc1ccc(Nc2c(S(=O)(=O)c3ccccc3)cnc3ccc(CC)cc23)cc1`: -20.2%. Turning to `CCC1COCCS(=O)(=O)N1Cc1cccc(Cl)c1` (configuration not stated), the inhibition is active: 47.1%. The same measure for `CCCCNC(=O)CSc1nc2ccccc2nc1Cc1ccccc1`: 15.6%. Next, `Cc1cccc(NC(=O)CCS(=O)(=O)c2cc(Br)cc3c2N(C(=O)C2CC2)CC3)c1C`: 7.33%; `CCCNC(=O)Cn1nc(C)c2c(C)n(-c3ccccc3)nc2c1=O`: -19.4%. Consider `CC1=C(C(=O)Nc2cccnc2)C(c2ccc(F)cc2)n2nc(SCc3ccccc3)nc2N1` (configuration not stated), for which the inhibition amounted to 2.42%.

Regarding `CC1CCN(S(=O)(=O)c2cccc(C(=O)N(C)C3(C)CCS(=O)(=O)C3)c2)CC1` (configuration not stated), the inhibition was -20.3%.

In the case of `COc1cc(OC)c(NC(=O)CSc2nc3ccncc3[nH]2)cc1Cl`, the inhibition is 13.6%. For the molecule `CC(NC(=O)C1CCN(C(=O)N2CCOc3ccccc32)CC1)c1ccccc1` (configuration not stated), the inhibition stood at 24.1%. The same measure for `COc1cc(C2Oc3nc(SC)nnc3-c3ccccc3N2C(C)=O)cc(Cl)c1OC` (configuration not stated): -11.5%; for `Cc1cc(Br)ccc1NC(=O)c1sc2ncn(Cc3ccccc3Cl)c(=O)c2c1C`: -10.2%; for `Cc1ccc(-n2ncc3c(NCc4ccccc4)ncnc32)cc1C`: 0.516%.

In the case of `O=C(CSc1oc(-c2ccco2)nc1S(=O)(=O)c1ccc(Br)cc1)c1ccc(Cl)cc1`, the inhibition came to 5.99%.

With `CCc1cc2c(cc3c(=O)n(CC(=O)NCCCN4CCCCCC4)nc(CC)n32)s1`, the inhibition is active: 32.6%. Next, `COc1ccc(C(=O)N2CCN(S(=O)(=O)c3ccc(F)cc3)CC2)cc1OC`: active: 39.1%; `COC(=O)C1CCN(c2csc3ccc(C)cc3c2=O)CC1`: 4.4%. The same measure for `Cc1ccc(C)c(NC(=O)CN(Cc2ccccc2)S(=O)(=O)c2ccc3nc(C)sc3c2)c1`: 21%; for `CCN(CC)c1ccc(-c2nc(-c3ccccn3)no2)cc1[N+](=O)[O-]`: -3.85%; for `CN1c2ccccc2-c2nc(SCC(=O)Nc3ccccc3)ncc2S1(=O)=O`: -9.92%. Next, `CSc1cccc(NC(=O)c2ccc3c(c2)CCCN3S(C)(=O)=O)c1`: 0.244%; `Cc1ccc(S(=O)(=O)Nc2ccc3c(c2)nc(CCN2CCCC2)n3C)cc1`: active: 39.5%; `COc1ccc(NC(=O)c2ccc3[nH]c(C)cc(=O)c3c2)cc1`: 12.3%. In the case of `CCCCCCn1c(/C=C/c2ccccc2)nc2ccccc21`, the inhibition is 22.1%.

As to `Cc1ccc(/C=C/C(=O)Nc2ccc(Cl)cc2Cl)cc1`, the inhibition was -14.6%. The same measure for `Cc1ccc(NC(=O)Cc2coc3c(C)c(C)ccc23)c(C)c1`: 20.5%; for `Cc1ccc(-n2cc(C(=O)OCc3ccc(Cl)cc3)c3ccccc3c2=O)cc1`: -15.9%; for `CCN1C(=O)c2ccccc2S(=O)(=O)c2ccc(C(=O)NCc3ccc(F)cc3)cc21`: 8.27%.

For `Cc1ccc(CNC(=O)CN2C(=O)COc3ccc(S(=O)(=O)N4CCC(C)CC4)cc32)cc1`, the inhibition is -0.775%. Next, `COc1ccc(NC(=O)c2ccc(-c3cccc(Cl)c3C)o2)cc1`: -3.74%; `COc1ccc(-c2[nH]c(-c3ccccc3)nc2SCC(=O)Nc2ccc3c(c2)OCO3)cc1`: -2.91%; `CCn1c(CN2CCCCC2)nc2cc(NC(=O)COc3ccc([N+](=O)[O-])cc3)ccc21`: -17.5%. Turning to `COc1ccc(-c2nc(CSc3nc4ncccc4[nH]3)c(C)o2)cc1OC`, the inhibition is -4.05%. Next, `CC(NC(=O)Cc1ccc(NC(=O)N2CCCCc3ccccc32)cc1)c1ccccc1` (configuration not stated): -5.34%; `CC(NC(=O)c1ccc(N2Cc3ccccc3Oc3ncccc32)s1)c1ccccc1` (configuration not stated): -3.47%; `Cc1ccc(/C=C/c2onc(C)c2S(=O)(=O)N2CCC(C(=O)NCc3ccc(Cl)cc3)CC2)cc1`: -4.31%. The same measure for `O=C(NCCc1ccc(Cl)cc1)c1ccc2c(c1)N(Cc1ccc(F)cc1Cl)C(=O)CS2`: -2.35%; for `CCOC(=O)C(C)NC(=O)c1cc2c(=O)[nH]c3ccc(C)cc3c2s1` (configuration not stated): -0.751%. Next, `Cc1c(Cl)cccc1NC(=O)C(=O)NCCc1csc(-c2cccc(F)c2)n1`: -22.3%. Take `O=C(CN1CCN(c2ccccn2)CC1)Nc1cccc(C(F)(F)F)c1`: the inhibition was active: 48.2%. Next, `Cc1ccc(C(C)C)c(OCC(=O)Nc2c(C(=O)c3ccc(F)cc3)oc3ccccc23)c1`: 5.91%; `Cc1cc(O)c(C(c2ccccc2Cl)N2CCCCC2)c(=O)n1Cc1ccco1` (configuration not stated): 6.28%; `COc1cc(OC)c(C2C=C(c3ccc(C)cc3)Nc3c(C(=O)Nc4ccccc4)cnn32)cc1OC` (configuration not stated): -4.23%. The same measure for `CCc1ccc(C2N3CC4(C)CN2CC(c2ccccc2)(C3)C4=O)cc1` (configuration not stated): 4.13%. Next, `Cc1c2cnn(CC(=O)N3CCCCC3)c(=O)c2c(C)n1Cc1ccc(Cl)cc1`: 6.15%; `c1c(C2CCCCC2)n[nH]c1CN1CCCCC1`: active: 40.1%; `CCn1cc(C(=O)NCc2ccccc2)c(=O)c2cc(S(=O)(=O)N3CCOCC3)ccc21`: 4.08%.

`O=C(Nc1ccc(F)cc1)c1cccc(N2CCCS2(=O)=O)c1`: the inhibition is -8.82%.

Take `CCOc1ccccc1NC(=O)C1CCN(S(=O)(=O)Cc2ccccc2)CC1`: the inhibition worked out at 26.2%. The same measure for `Cc1cc(=O)n(C(C)C(=O)NCc2ccccc2Cl)c2c1c(C)nn2-c1ccccc1` (configuration not stated): -9.2%. Next, `CCOC(=O)C1=C(CNCc2ccccc2)NC(=O)NC1c1ccc(C)cc1` (configuration not stated): 14.4%; `COc1cccc(-c2nc(SC(C(C)=O)C(=O)N(C)C)c3c(=O)n(C)c(=O)n(C)c3n2)c1` (configuration not stated): -4%; `Cc1ccc(N2C(=O)[C@@H]3CSC(c4ccc(C(F)(F)F)cc4)N3C2=O)cc1` (some centres not stated): 16.9%.

For `COc1ccc(-n2c(=O)c3c(C)c(C)sc3n(Cc3ccc(F)cc3)c2=O)c(OC)c1`, the inhibition was -9.48%.

With `Cc1ccc(S(=O)(=O)N2CCCc3cc(NC(=O)c4ccc(C(F)(F)F)cc4)ccc32)cc1`, the inhibition was 10.9%. In the case of `Cc1cc(N2CCN(C)CC2)nc2ccc(NC(=O)Nc3ccccc3Cl)cc12`, the inhibition was 21%. The same measure for `CCN(c1ncnc2c1c(-c1ccccc1)cn2-c1ccccc1)C1CCCCC1`: -9.88%.
